Source: PubChem BioAssay AID1745845 (National Center for Advancing Translational Sciences (NCATS), 2022)
Hit rate of the full screen: of about 360,000 compounds, about 2,600 (0.72%) were called active. Inconclusive means that the source gave no clear call. Such entries were picked first, then a sample of the others. Calls come from the whole dose curve; as a rule, active = well fitted inhibition curve with a large enough effect; inconclusive = small, poorly fitted or top-dose-only effect; inactive = no such curve, though single readings can be large or run the other way. Potencies of inconclusive entries are doubtful fits and often do not repeat.

Assay: Primary qHTS for Inhibitors of ATXN expression; note: nearly all actives have a fitted effect of over 55% in size
Conditions: HEK-293 ATXN2-luciferase reporter, luminescence, 24 h; activity change, negative = inhibition: at 57 µM (top of the series)
Outline: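 ATXN2-luciferase reporter cells (luciferase flanked by upstream and downstream ATXN2 gene portions) were treated 24 h at 37 °C with compounds at up to 57 uM. SteadyGlo luminescence gave expression; GF-AFC fluorescence gave viability.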
% is set by controls: 0 for no effect and ±100 for the full control effect; potency is the fitted concentration of half-maximal effect; tags give direction and shape of the fitted curve.

SMILES	Potency	activity change, negative = inhibition
NS(=O)(=O)c1ccc(N2N=C(c3ccc(Br)cc3)CC2c2ccc(F)cc2)cc1 (stereo unspecified)	inconclusive: 39.8 µM [inhibitor, single point]	
Cc1ccc(-n2nnc(-c3nccs3)n2)cc1	inconclusive: 11.2 µM [inhibitor, single point]	
Cn1c(/C=C(\C#N)C(N)=S)ccc1-c1ccc(Br)cc1	inconclusive: 37.7 µM [inhibitor, single point]	
Cc1nc2ccccc2n1/N=C/c1ccc([N+](=O)[O-])s1	active: 21.2 µM	
Cc1ccc([N+](=O)[O-])cc1N(CC(=O)Nc1ccc(S(=O)(=O)Nc2cccc(C(F)(F)F)c2)cc1)S(C)(=O)=O	inconclusive: 39.8 µM [inhibitor, single point]	
CC(C)C(C)(C#N)NC(=O)CSc1nc2scc(-c3ccc(F)cc3)c2c(=O)n1Cc1ccccc1 (stereo unspecified)		inactive: -20.5%
Cn1c(=O)n(C)c2cc(NS(=O)(=O)c3ccccc3)ccc21		inactive: 65%
Cc1cc(C)cc(NC(=S)NCC2CCN(C(C)c3ccccc3)C2)c1 (stereo unspecified)	inconclusive: 39.8 µM [inhibitor, partial curve, poor fit]	
CC(=O)c1cccc(NC(=O)C2CCCN(S(=O)(=O)c3cccc4cccnc34)C2)c1 (stereo unspecified)	inconclusive: 28.2 µM [inhibitor, partial curve, poor fit]	
Cc1[nH]c2ccccc2c1C1(O)C(=O)N(Cc2ccccc2)c2ccc(Cl)cc21 (stereo unspecified)	inconclusive: 39.8 µM [inhibitor, single point]	
CCOC(=O)c1nc(Nc2ccc(N3CCOCC3)cc2)c2ccccc2n1		inactive: 4.49%
COc1ccc(-c2nnc(NC(=O)c3ccc(S(=O)(=O)N4CCCc5ccccc54)cc3)o2)cc1	inconclusive: 14.1 µM [inhibitor, partial curve]	
Cc1nn(-c2ccccc2)c(C)c1C(=O)NCCc1ccccc1		inactive: 24.4%
COc1ccc(C[C@H]2CN3C(=NC[C@@H]3Cc3ccccc3)N2CCNC(=O)c2ccc(C)c(Br)c2)cc1	active: 22.4 µM	
COc1ccc(CCN(C)CC(O)COc2c(C)ccc(C)c2C)cc1OC (stereo unspecified)		inactive: -25.3%
Nc1ncnc2c1nc(Cl)n2[C@@H]1O[C@H](CO)[C@@H](O)[C@@H]1O	inconclusive: 24.3 µM [inhibitor, single point]	
COc1ccc(NC(=O)c2c(Nc3ccccc3)sc(C(=O)c3ccc(F)cc3)c2N)cc1	inconclusive: 6.31 µM [inhibitor, full curve]	
Cc1ccc(S(=O)(=O)CCC(=O)OCC(=O)NC(=O)c2ccccc2)cc1		inactive: -2.13%
CC(=O)c1ccc(NC(=O)Nc2sc3nc4n(c(=O)c3c2C)CCC(C)CC4)cc1 (stereo unspecified)		inactive: 6.76%
CCCNS(=O)(=O)c1ccc(N2CCCC2=O)c([N+](=O)[O-])c1		inactive: 1.65%
OC(CNCC1CCCO1)Cn1c2ccc(Cl)cc2c2cc(Cl)ccc21 (stereo unspecified)	inconclusive: 39.8 µM [inhibitor, single point]	
CCC(C)Nc1ccc(NC(C)CC)cc1 (stereo unspecified)	inconclusive: 6.31 µM [inhibitor, single point]	
Cc1ccccc1-n1cnc2c(sc3nc(N4CCOCC4)c4c(c32)CCCC4)c1=O	inconclusive: 20 µM [inhibitor, partial curve, poor fit]	
COc1cc(NC(=O)CCc2c(C)nc3c(-c4ccc(F)cc4)c(C)nn3c2C)cc(OC)c1OC		inactive: -10.6%

SMILES	Potency	activity change, negative = inhibition
Cc1nn(-c2ccccc2)c2sc(C(=O)Nc3cccc(Cl)c3)cc12	inconclusive: 14.1 µM [inhibitor, partial curve]	
COc1ccccc1NC(=O)CSc1n[nH]c(-c2ccccn2)n1	inconclusive: 37.7 µM [inhibitor, partial curve, poor fit]	
Cc1nc2c3ccccc3nc(NNC(=O)CCC(=O)N3CCN(c4cc(Cl)ccc4C)CC3)n2n1		inactive: -23.4%
COc1cccc(/C=N/NC(=O)CNC(=O)c2cccnc2)c1O	inconclusive: 20 µM [inhibitor, partial curve, poor fit]	
O=C(Nc1nc(-c2ccccc2)cs1)c1ccc(N2CCOCC2)c([N+](=O)[O-])c1	active: 12.6 µM	
Cc1ccc(NC(=O)Nc2cn(C)c(=O)c3ccccc23)c(Cl)c1		inactive: 11.3%
CCc1ccccc1NC(=O)c1ccc(Cn2nc(N3CCN(c4ccccc4)CC3)ccc2=O)o1	active: 20 µM	
Cc1nnc(SCC(=O)NC(C)c2ccccc2)[nH]c1=O (stereo unspecified)		inactive: -15.9%
Cc1nc2c(OCc3ccc(C#N)cc3)cccn2c1N(C)Cc1cccs1	inconclusive: 39.8 µM [inhibitor, single point]	
c1ccc(CN2CCN(c3nc(NCc4ccco4)c4ccccc4n3)CC2)cc1	inconclusive: 35.5 µM [inhibitor, partial curve, poor fit]	
C=CCc1ccccc1OCc1nc2ccc(C)cc2[nH]1	inconclusive: 31.6 µM [inhibitor, single point]	
Cn1c(=O)c2c(nc(NC3CCCCC3)n2CC(=O)C23CC4CC(CC(C4)C2)C3)n(C)c1=O	inconclusive: 17.8 µM [inhibitor, partial curve, poor fit]	
COC(=O)c1cccc(NC(=O)CC2C(=O)NCCN2C(=O)Nc2cc(C)cc(C)c2)c1 (stereo unspecified)		inactive: 3.4%
Cc1csc2c(NC3CCN(Cc4ccccc4)CC3)ncnc12	inconclusive: 39.8 µM [inhibitor, single point]	
O=C(COc1cccc2c1CCN(Cc1ccc(Br)cc1)C2=O)N1CCOCC1		inactive: -35.1%
N/C(=N\C(=S)Nc1ccccc1)c1ccccc1		inactive: 83.8%
COc1ccc(NC(=O)C2Cc3c(-c4cccc(C(C)=O)c4)ccnc3O2)cc1OC (stereo unspecified)	inconclusive: 3.55 µM [inhibitor, partial curve, poor fit]	
Cc1ccccc1Nc1nc(NCc2ccco2)c2ccccc2n1	inconclusive: 16.8 µM [inhibitor, partial curve, poor fit]	
CC12CN3CC(C)(CN(C1)C3c1ccc([N+](=O)[O-])o1)C2 (stereo unspecified)		inactive: 8.33%
Cc1ccc(C(=O)CSc2nnnn2C(C)C)c(C)c1	active: 7.94 µM	
Cc1ccc(Cn2c(C(C)Nc3nc(-c4ccc(F)cc4)cs3)nc3cc(C(F)(F)F)ccc32)cc1 (stereo unspecified)		inactive: -12.2%
CCOc1ccc(S(=O)(=O)Nc2ccccc2C(=O)Nc2ccccc2N2CCOCC2)cc1		inactive: -2.26%
COc1ccc(Nc2nc3ccc(C)cn3c(=O)c2/C=N/O)cc1		inactive: -2.55%
OC(c1ccc(Cl)c(Cl)c1)c1ncc(-c2ccccc2C(F)(F)F)[nH]1 (stereo unspecified)	inconclusive: 39.8 µM [inhibitor, single point]	

SMILES	Potency	activity change, negative = inhibition
CC1=C(C(N)=O)C(c2cccc(Br)c2)n2nc(SCc3ccccc3Cl)nc2N1 (stereo unspecified)		inactive: -6.46%
Cc1cc(C)c(C#N)c(SCC(=O)CC(=O)OC(C)C)n1		inactive: 1.04%
Cc1onc(-c2ccccc2)c1CNC(=O)Nc1cccc(Cl)c1		inactive: -31.5%
CCOc1ccc(CCNC(=O)c2cc3sccc3n2CC)cc1OCC	inconclusive: 12.6 µM [inhibitor, partial curve, poor fit]	
CCOC(=O)N(C)c1c(CC)nc2c(OCc3ccc(Cl)cc3Cl)cccn12	inconclusive: 22.4 µM [inhibitor, partial curve]	
COc1cccc(/C=C2\SC(=S)N(CCC(=O)NCCc3ccc(O)cc3)C2=O)c1	inconclusive: 39.8 µM [inhibitor, single point]	
O=C(CSc1nnc(-c2c[nH]c3ccccc23)o1)N(Cc1ccccc1)c1ccc(F)cc1	inconclusive: 39.8 µM [inhibitor, single point]	
Cc1ccc(N(C)S(=O)(=O)c2ccc(-c3coc(C)n3)cc2)cc1		inactive: -5.78%
COCC(=O)Nc1nc2n(n1)C(c1ccccc1)CC(c1ccc(OC)cc1)N2 (stereo unspecified)		inactive: 1.21%
O=C(CCl)N(O)c1ccc(C=Cc2ccccc2)cc1	inconclusive: 10.6 µM [inhibitor, partial curve, poor fit]	
O=C(NCc1ccco1)c1ccc2ccccc2c1		inactive: 18.3%
c1cncc(-c2nc(N3CCOCC3)c3c4c(sc3n2)CCC4)c1	inconclusive: 2.99 µM [inhibitor, partial curve, poor fit]	
CCOC(=O)c1c(C)c(C(=O)N2CCN(c3ccccc3)CC2)c(C)n1C		inactive: 2.85%
CC(C)C[C@H]1CNC(=S)N1C[C@H]1CCCN1C[C@H](Cc1ccc(O)cc1)N1C[C@H](Cc2ccc(O)cc2)N(CC2CCCCCC2)C1=S	active: 17.8 µM	
Cc1ccc(Cn2c(-n3nc(C)cc3C)nc3c2c(=O)[nH]c(=O)n3C)cc1		inactive: 2.26%
CN(O)/C=N/C(=S)Nc1ccc(Cl)cc1Cl		inactive: -5.1%
CC(C)c1ccccc1Cc1cc(C(=O)Nc2ccc(S(=O)(=O)c3ccccc3C(C)(C)C)cc2)c(O)c(O)c1O	inconclusive: 27.3 µM [inhibitor, partial curve]	
CC(=O)O[C@@H]1C[C@H]2C(C)(C)C(=O)C=C[C@]2(C)[C@H]2CC[C@@]3(C)[C@H](c4ccoc4)OC(=O)[C@H]4O[C@]43[C@@]21C	inconclusive: 28.2 µM [inhibitor, single point]	
OCCNc1nc(Nc2ccccc2)nc(Nc2ccccc2)n1		inactive: -4.94%
N#C/C(=C\c1c(N2CCCCCC2)nc2ccccn2c1=O)C(=O)NC1CCS(=O)(=O)C1 (stereo unspecified)		inactive: 2.15%
CC(=O)Nc1ccc(-c2ccnc3c2CC(C)(C(=O)Nc2ccc(Cl)c(C(F)(F)F)c2)O3)cc1 (stereo unspecified)	active: 20 µM	
Cc1ccc(NC(=O)Cn2cc(C(=O)c3ccco3)c3ccccc32)cc1C	inconclusive: 17.8 µM [inhibitor, partial curve, poor fit]	
O=C(O)c1ccc(/C=N/NC(=S)NCc2ccccc2)cc1	inconclusive: 0.267 µM [inhibitor, partial curve, poor fit]	
